Whole data set: some 33,000 sequences, median “E-score (-0.5 to 0.5)” near -0.012, cut for the highest 2% near 0.29. The list shows a part of the results.
biological target: T1, Ybr033w (UniProt P38073); test: PBM E-score (8-mer binding enrichment) (E-score (-0.5 to 0.5)); higher = stronger / more preferred TF binding; most listed sequences are background and not binding sites; settings: protein concentration: 200 nM; construct: GST-full length
T1 sequence: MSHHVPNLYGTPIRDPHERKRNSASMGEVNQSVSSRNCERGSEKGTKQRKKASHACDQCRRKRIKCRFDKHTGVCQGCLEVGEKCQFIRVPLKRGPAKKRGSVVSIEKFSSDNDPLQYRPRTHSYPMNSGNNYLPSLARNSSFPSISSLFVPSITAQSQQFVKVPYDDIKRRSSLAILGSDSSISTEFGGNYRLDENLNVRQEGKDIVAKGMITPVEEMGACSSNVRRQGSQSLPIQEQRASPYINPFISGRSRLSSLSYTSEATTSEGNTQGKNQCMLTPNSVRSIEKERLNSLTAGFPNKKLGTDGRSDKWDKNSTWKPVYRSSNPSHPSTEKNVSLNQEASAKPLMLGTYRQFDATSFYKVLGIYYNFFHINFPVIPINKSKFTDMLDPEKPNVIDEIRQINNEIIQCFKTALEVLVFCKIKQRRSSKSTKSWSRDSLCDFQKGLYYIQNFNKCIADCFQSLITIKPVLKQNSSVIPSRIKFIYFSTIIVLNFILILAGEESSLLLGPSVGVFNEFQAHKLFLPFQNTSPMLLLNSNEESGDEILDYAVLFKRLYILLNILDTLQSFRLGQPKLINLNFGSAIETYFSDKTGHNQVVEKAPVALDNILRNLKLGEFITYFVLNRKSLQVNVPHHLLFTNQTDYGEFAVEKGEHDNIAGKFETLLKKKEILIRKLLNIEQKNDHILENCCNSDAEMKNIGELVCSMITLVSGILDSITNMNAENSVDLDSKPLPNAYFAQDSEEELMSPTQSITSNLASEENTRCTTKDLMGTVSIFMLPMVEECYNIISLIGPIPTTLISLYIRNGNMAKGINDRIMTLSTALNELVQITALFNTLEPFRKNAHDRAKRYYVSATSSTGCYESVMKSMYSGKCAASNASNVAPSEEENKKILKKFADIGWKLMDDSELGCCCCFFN
In short: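 Masliner-normalised scans of fluorescent anti-GST signal were the basis for scoring. That signal came from GST-tagged yeast transcription factors applied at about 100-200 nM to double-stranded universal all-10-mer Agilent arrays on fresh or once-stripped slides. Each ungapped eight-base word, pooled with its reverse complement, received an E-score from the Universal PBM Analysis Suite.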

Sequence | PBM E-score
CGATGCAG | -0.179
ATACTTAC | 0.159
GAATCAAA | 0.0784
ACTTCCTG | 0.0249
AGTTGTCA | 0.132
TAGACACA | -0.00152
TCTATCCA | 0.0807
ATAAGGGG | -0.164
ACTTATCA | 0.0271
CCAAAGTC | -0.0294
CGTTTTGC | -0.146
GGCTGGAA | -0.0219
ATGTGTCC | -0.0776
AACTAAGT | 0.0846
CGTGAGAG | -0.375
GGCCAAGA | -0.16
CCTTCACG | -0.0929
CCCTGCAG | -0.144
CAAAAACC | 0.287
GCATTACA | -0.0605
CTCGCACA | -0.119
GCTGGGGA | -0.222
CTGACAGC | -0.101
GATAGGAC | -0.188
ACATCACT | 0.137

Sequence | PBM E-score
CATCAACG | 0.162
GGGTTAGA | -0.221
CAGCAATC | 0.019
ACGACATG | 0.0526
TGGTACCA | -0.0359
CTATTCAC | 0.148
AAAACCCG | 0.146
CAAGAAGA | 0.137
AAGAGTGT | 0.0841
CACGAACC | -0.0948
AACATGAT | 0.198
AAACACAC | 0.103
TAATCCTA | 0.185
AAGCGATC | 0.102
ACCTACAT | 0.0343
ACGGTACT | -0.0218
GGATAGAC | -0.105
GGGGCTAC | -0.244
CGCAAGAG | -0.113
AAAATAAC | 0.189
AGCACACG | -0.0988
CACGTGAA | -0.0657
CGCCGAAA | -0.048
CGGACATC | -0.111
TATGGAAA | 0.242

Sequence | PBM E-score
CCTACTAG | 0.0507
CAGGATCA | 0.0474
CAGGGTAA | 0.015
GGTCAAGA | -0.0424
AGTGGATC | 0.0532
ATATGGCG | 0.0393
CGCGGACC | -0.187
CGGGATCA | 0.044
AAGTACGT | 0.148
ATCGCTTG | -0.0992
AGCCCAAT | -0.125
ACGAATGC | 0.0238
GTCGGCAC | -0.0718
ACTTTTCA | 0.182
CCTTTGTA | -0.0461
CCACTGGG | -0.308
AGGCAATC | 0.0764
ACGATCAT | 0.0806
CAGACAGA | 0.00803
CATCCCAA | 0.0994
GGTACGAC | -0.0943
ACTTTCAG | 0.0141
GCACTCCA | -0.134
CACTCCGC | -0.027
GCCGAGAC | -0.224

Sequence | PBM E-score
CATATCTC | 0.129
CTCGATGC | -0.115
GGCTACTA | 0.124
ATTTATTC | 0.361
GATCGATA | 0.0488
GGTACATA | 0.074
GAAAACGC | 0.0339
CCACAGAA | -0.0197
AACACGAT | 0.0963
AATCGCAC | -0.128
ATTGGGTA | -0.00698
CTCATAGC | -0.113
ACTTGCCA | -0.00759
ATGTGAGG | -0.0879
GAATTTTA | 0.295
AGGGGGAT | -0.4
ACTAGAAC | 0.0607
GCAACTCA | 0.0964
CCGGCGAC | -0.289
ACAATAAC | 0.246
AGGGTTCC | -0.194
CTGAAGCA | -0.0699
ACAAAAGG | 0.0138
CCGCATCC | -0.247
TAGCCTGA | -0.159

Sequence | PBM E-score
CTACCCAG | -0.033
CACTTAGG | -0.24
ATTATAGA | 0.265
CAGGGGAG | -0.205
CTCTTCGC | -0.13
CGGTTACG | -0.168
GGCCCTTA | -0.239
ACGTAATA | 0.164
ATTCTGCC | 0.0257
AAGTTCTG | 0.103
TAGCAGGA | -0.08
AATAGAAG | 0.106
CAGAGACC | -0.252
GGGCGAAA | 0.127
AACCTCGG | 0.0447
GGTTAGAC | -0.0457
CTTAGAAA | 0.138
CGCGCGGA | -0.00091
CTCGCCTC | -0.259
CTGGATAC | -0.107
CTGCTCGC | -0.0887
GGAATGCA | 0.105
AGTTAGAT | 0.18
AGAGACTG | -0.243
ACTCGCCA | -0.0174

Sequence | PBM E-score
ACCGAGCA | 0.00152
ATCACCGC | -0.13
GTTTATCA | 0.141
ACGCGTTA | -0.0212
ACGAGTTG | 0.0676
CATCAGAA | 0.101
AGGGCTGC | -0.358
GAAACCCC | -0.0402
ATTTCGGA | 0.264
GTGTGTCA | 0.209
GGGTTTGA | 0.0772
GGACACGA | -0.263
AGTTCCCG | -0.192
AGCAAGAA | 0.125
AACTAGGC | -0.0432
CGCTTCCG | -0.19
CAGTCCTA | -0.06
ACCGGACT | -0.0402
GAGCCAAC | -0.161
GAGTTGAC | -0.0171
CAGCGATG | -0.126
CTTTGCTC | -0.104
AAAGAGCC | -0.112
ATGGCCTG | -0.16
AGCTTAAG | 0.0321

Sequence | PBM E-score
TAGCTGAA | 0.111
GTCTGCAC | -0.164
ACGGTCCA | -0.201
CCCCGCTC | -0.346
GCTATATA | 0.194
CGATCAAC | -0.144
ACCGCCCC | -0.158
ACATCACG | -0.0607
TACACTAA | 0.0217
ATGAGATG | 0.122
ACAGATGG | -0.0785
ACACGTGT | -0.0649
ATGGTCGA | 0.137
AGGATGAC | -0.156
GAACGTCA | -0.222
CCGCCAGC | -0.172
GGAAGAGA | -0.0803
CGGTATTA | 0.108
GATATGGC | -0.161
ATTTCATG | 0.0772
ATTGAGTA | 0.29
AGACAGAA | 0.209
